These results are taken from the supplement of paper PMC10126150.

For the data set, the system named is ATP. Briefly: switch fluorescence ratio, 500 uM ATP over buffer (Cy3 cluster intensity, sum of 5 cycles each) (fold (ratio)); higher = stronger signal-on switching upon ATP binding; sequences stand for … in TCGTCGGCAGCGTCAGATGTGTATAAGAGACAGTTTTTTTTTTTTTTTTTTTTTTTTT…TC. As to conditions: aptamer strand: ATP DNA aptamer (quencher-CACCTGGGGGAGTATTGCGGAGGAAGG + anchor), 100 nM annealed; ATP concentration: 500 uM; one replicate. The gist of the method: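 The fluorescence ratio divides summed target-cycle Cy3 intensity by summed buffer-cycle Cy3 intensity for each cluster and is averaged per switch-domain sequence. Cy3-labelled switching-strand clusters on a modified Illumina MiSeq flow-cell were annealed to 100 nM quencher-labelled ATP aptamer, then imaged in selection buffer and again after 15 min with 500 uM ATP at 22 °C. Five such cycles were run, with NaOH stripping and re-annealing between them, and clusters outside 100-1000 RFU were excluded.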

Sequences with one replicate were seen in a single cluster, so their values are uncertain.
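Further: ATP exposure 15 min at 22 °C before imaging.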

Consider GAATTGGCAG, for which the switch fluorescence ratio was determined as 1.02. Next, TGCATTTGTA: 1.01; ACCAGGTAAG: 1.05.

With CTACGTCT, the switch fluorescence ratio was found to be 1.11. For CTTCGTTAAT the value was 1.29; for ATAGCAAGGT, 1.22. For CTATTGCGGT the value was 1. For AGCCATATGC the value was 1.14; for AGTAATTTGG, 0.965; for TCCCACTTT, 1.02. In the case of GGGTACAAAC, the switch fluorescence ratio amounted to 1.05. As for TCACGTTTGG, the switch fluorescence ratio turned out to be 1.01. Next, TCCCTATAGA: 1.02; CGAGGGTGTG: 1.01.

CTGTCTCCG: the switch fluorescence ratio was 1.19. As for ATCAGGTTTC, the switch fluorescence ratio came to 1.06. Turning to GCCCTTATAA, the switch fluorescence ratio amounted to 0.959. Next, ATGTCTTGGT: 1; GGCCGGGTCC: 1.01.

Take GCGTTGAAGG: the switch fluorescence ratio is 1.06. Next, ATACTTAATA: 1.05; CTAGAAGATC: 0.994; TCTTGGGTTC: 0.992. Turning to AGTGAATGTA, the switch fluorescence ratio was determined as 1.01.

Take GTTAAGGGAG: the switch fluorescence ratio worked out at 1.01. Next, TATTCAGGAG: 1.02; GCCGTGGGTC: 0.971; CAAGCGCCCA: 1.02. Consider GGATTATCTA, for which the switch fluorescence ratio is 0.966.

As for ATCTTCCCTG, the switch fluorescence ratio turned out to be 1.22.

TTGTTCGTCA: the switch fluorescence ratio stood at 1.02. For TGTAATGAAT the value was 1.01; for CATGCGTTAA, 1.06; for CGCGGTCCTC, 1.22.

For the sequence ACAAACGAAA, the switch fluorescence ratio amounted to 1.15. Next, GCTTAAGCCG: 1.02; GGTGAGTAAC: 0.93.

Regarding ATAGATGGGC, the switch fluorescence ratio is 0.989. Consider TGTAAGGCGA, for which the switch fluorescence ratio amounted to 0.972.

As for TGGAGTCTGC, the switch fluorescence ratio was found to be 1.13. Next, TGCTCAGCT: 1.07; GCCAAAGGTA: 0.984. Consider GACACATACA, for which the switch fluorescence ratio came out at 1.48. Next, CAGTGTAAGG: 1; TCGGGACGAT: 1.02; ACTGTGTCTG: 1.02.

For ACTAGTTG, the switch fluorescence ratio came to 0.941.

Regarding CTACGGCCTT, the switch fluorescence ratio was 1.08.

For the sequence GGTAAAAGCG, the switch fluorescence ratio was found to be 0.987. Consider ACTAATAACG, for which the switch fluorescence ratio turned out to be 1.06. Turning to TGCTCAATTG, the switch fluorescence ratio came to 1. Next, ATGGCTCACT: 0.989; CCGTAGCCGT: 1.16. Next, GAGGGCGGTC: 1.06. As to GCGCGTAGTG, the switch fluorescence ratio turned out to be 1.01. Regarding ACCCGGCGAG, the switch fluorescence ratio worked out at 1.02.

As to AAGTACTTCA, the switch fluorescence ratio worked out at 1.22. For AAGAAGAATA the value was 1; for ATCATGGACC, 1.04.

Regarding CGGAGTTGCT, the switch fluorescence ratio stood at 1.04. Next, GTAGGGTTAT: 0.989; TACTTTATT: 1.11. For TCTTACCGGC the value was 0.935; for CCTGTTCTTT, 0.988; for TCCCCCTTAC, 3.08. On to ACATCCTATT, for which the switch fluorescence ratio is 1.03.

Take AATGCGAAGC: the switch fluorescence ratio worked out at 1.1.
